Measured values as given in patent publication US4820698A, “Antimicrobial agents and process for their manufacture” (The Procter & Gamble Company, priority 1986, dated 1989).
Values after ≈ are worked out from the molar mass of the structure shown. Where two headings read alike, the source gives them in different places.

Tested on: E. Coli (G-), clinical isolate
Test: In vitro antibacterial activity, standard microdilution MIC assay
Assay type: cell-based
[1] = Escherichia coli, E. Coli (G-), clinical isolate, read-out: MIC

| SMILES | MIC (E. Coli (G-), clinical isolate) | MIC [1] [µg/mL] | further results |
| --- | --- | --- | --- |
| C=C(P(=O)(OCC)OCC)P(=O)(OCC)OCC [B, Tetraethyl ethenylidenebisphosphonate] | 6,300 μg/ml | – | – |
| C[C@@H]1O[C@@H]1P(=O)(O)O [D, Fosfomycin, reference compound] | – | – | MIC (Escherichia coli, read-out: MIC): 320 µg/mL (≈ 2320 µM) |
| CC1(C)S[C@@H]2[C@H](NC(=O)Cc3ccccc3)C(=O)N2[C@H]1C(=O)O [E, Penicillin G, reference compound] | – | 260 (≈ 778 µM) | – |
| C=C(P(=O)(OCCCC)OCCCC)P(=O)(OCCCC)OCCCC [C, Tetrabutyl ethenylidenebisphosphonate] | – | 25000 (≈ 60600 µM) | – |
| C=C(P(=O)(OC)OC)P(=O)(OC)OC [A, Tetramethyl ethenylidenebisphosphonate] | 520 µg/mL (≈ 2130 µM) | – | – |
